Hit rate of the full screen: of about 360,000 compounds, about 16,000 (4.4%) were called active. Inconclusive results, whose numbers are uncertain, are shown with a selection of clear calls. Calls follow the shape of the dose curve; as a rule, active = well fitted inhibition curve with a large enough effect; inconclusive = small, poorly fitted or top-dose-only effect; inactive = no such curve, though single readings can be large or run the other way. Potencies of inconclusive entries are doubtful fits and often do not repeat.
What follows are compounds tested against Bromodomain adjacent to zinc finger domain protein 2B (Homo sapiens) (UniProt Q9UIF8) (assay: qHTS Assay for Inhibitors of BAZ2B). Conditions: AlphaScreen BAZ2B-H3K14Ac peptide displacement; series mostly up to 114 µM.
Outline: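 Inhibition is scored as reduced AlphaScreen emission. The BAZ2B/b-H3(5-23)K14Ac complex (50 nM each) in PBS pH 7.4, 0.01% Tween-20 meets compound (up to 110 uM) for 30 min at RT before bead addition.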
Also: nearly all actives have a fitted effect of over 60% in size.
Potency is read from the fitted curve at half-maximal effect; tags tell the direction and shape of the fitted curve.

UniProt Q9UIF8, sequence (Q9UIF8 whole entry, looked up, the tested form may be a part): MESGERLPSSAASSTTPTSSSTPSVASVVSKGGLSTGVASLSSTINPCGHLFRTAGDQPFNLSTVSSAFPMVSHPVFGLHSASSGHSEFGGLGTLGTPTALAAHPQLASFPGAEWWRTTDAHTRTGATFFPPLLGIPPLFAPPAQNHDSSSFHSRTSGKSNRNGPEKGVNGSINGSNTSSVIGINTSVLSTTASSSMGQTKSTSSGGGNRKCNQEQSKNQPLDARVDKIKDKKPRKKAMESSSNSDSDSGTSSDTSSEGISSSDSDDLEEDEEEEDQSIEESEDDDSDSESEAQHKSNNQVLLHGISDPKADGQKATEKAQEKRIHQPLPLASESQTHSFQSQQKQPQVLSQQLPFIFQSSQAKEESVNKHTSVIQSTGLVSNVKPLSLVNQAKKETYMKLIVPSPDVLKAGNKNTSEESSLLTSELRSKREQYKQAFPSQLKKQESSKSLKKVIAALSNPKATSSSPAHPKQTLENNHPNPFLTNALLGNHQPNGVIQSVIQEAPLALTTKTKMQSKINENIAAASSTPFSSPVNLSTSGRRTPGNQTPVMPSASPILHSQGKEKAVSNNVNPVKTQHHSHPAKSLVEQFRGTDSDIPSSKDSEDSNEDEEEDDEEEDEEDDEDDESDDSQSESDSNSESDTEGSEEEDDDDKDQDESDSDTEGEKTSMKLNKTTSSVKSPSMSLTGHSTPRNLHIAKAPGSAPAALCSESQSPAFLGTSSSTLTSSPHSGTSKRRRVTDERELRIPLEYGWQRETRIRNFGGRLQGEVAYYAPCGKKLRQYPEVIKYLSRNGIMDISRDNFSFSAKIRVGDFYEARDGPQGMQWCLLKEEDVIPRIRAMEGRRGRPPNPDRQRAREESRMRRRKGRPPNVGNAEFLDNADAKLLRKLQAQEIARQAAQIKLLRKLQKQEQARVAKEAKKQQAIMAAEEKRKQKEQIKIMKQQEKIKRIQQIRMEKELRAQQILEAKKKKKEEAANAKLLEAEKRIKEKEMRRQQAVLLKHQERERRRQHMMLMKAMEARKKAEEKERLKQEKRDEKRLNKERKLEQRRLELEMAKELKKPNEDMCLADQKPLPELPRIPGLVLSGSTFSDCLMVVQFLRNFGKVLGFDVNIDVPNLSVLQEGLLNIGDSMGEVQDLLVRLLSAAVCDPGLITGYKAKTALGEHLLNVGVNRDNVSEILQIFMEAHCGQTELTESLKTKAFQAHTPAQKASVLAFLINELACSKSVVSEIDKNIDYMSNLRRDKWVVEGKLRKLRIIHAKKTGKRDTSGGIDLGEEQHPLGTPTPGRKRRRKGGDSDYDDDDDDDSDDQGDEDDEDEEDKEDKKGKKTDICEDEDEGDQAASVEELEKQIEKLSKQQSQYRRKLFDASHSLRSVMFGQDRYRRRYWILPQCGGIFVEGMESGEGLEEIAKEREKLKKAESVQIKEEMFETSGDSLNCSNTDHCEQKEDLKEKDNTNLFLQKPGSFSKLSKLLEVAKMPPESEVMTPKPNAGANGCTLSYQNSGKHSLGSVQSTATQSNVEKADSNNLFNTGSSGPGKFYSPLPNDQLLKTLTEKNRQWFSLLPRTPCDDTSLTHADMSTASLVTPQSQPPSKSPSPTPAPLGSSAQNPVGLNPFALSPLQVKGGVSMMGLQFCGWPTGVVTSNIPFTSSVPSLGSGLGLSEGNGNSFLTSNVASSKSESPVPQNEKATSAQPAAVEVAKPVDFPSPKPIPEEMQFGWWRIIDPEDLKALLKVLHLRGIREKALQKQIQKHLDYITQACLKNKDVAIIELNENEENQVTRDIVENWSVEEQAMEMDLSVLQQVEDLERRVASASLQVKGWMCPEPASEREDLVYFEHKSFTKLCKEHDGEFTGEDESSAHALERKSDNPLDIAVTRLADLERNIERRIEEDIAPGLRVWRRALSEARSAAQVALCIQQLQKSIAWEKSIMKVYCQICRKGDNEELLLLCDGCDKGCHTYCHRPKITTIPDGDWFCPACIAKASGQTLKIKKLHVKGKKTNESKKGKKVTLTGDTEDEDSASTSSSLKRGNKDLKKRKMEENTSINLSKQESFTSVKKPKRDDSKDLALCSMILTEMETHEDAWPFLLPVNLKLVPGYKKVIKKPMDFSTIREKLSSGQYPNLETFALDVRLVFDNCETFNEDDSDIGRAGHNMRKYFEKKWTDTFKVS

SMILES | Potency
O=C(Nc1ccc(CN2CCOCC2)cc1)c1ccc(-c2ccc(Br)cc2)o1 | inconclusive: 44.7 µM [inhibitor, partial curve]
COc1ccc(C(=O)/C=C/C(=O)N(CC(=O)NC2CCCCC2)Cc2ccccc2)c(O)c1 | inconclusive: 44.7 µM [inhibitor, partial curve]
CCOc1ccc(NC(=O)N(C(C)C)C2CCN(C(C)=O)CC2)cc1 | inactive
COc1cc2c(cc1OC)-c1cc(Nc3ccc(N(C)C)cc3)nc(=O)n1CC2 | inconclusive: 50.1 µM [inhibitor, partial curve]
CC(=O)Nc1ccc(OC(F)(F)C(F)F)c(NC(C)=O)c1 | inconclusive: 10 µM [inhibitor, single point]
Cc1[nH]n(-c2ccccc2)c(=S)c1C=Nc1ccc([N+](=O)[O-])cc1 | active: 10 µM
O=C(COc1ccc(Cl)cc1)NNC(=O)C(=O)N1CCCCC1 | inconclusive: 89.1 µM [inhibitor, single point]
CCCNC(=S)N1CCN(c2nc(-c3cccc(OC)c3)cs2)CC1 | inconclusive: 44.7 µM [inhibitor, partial curve]
Cc1cccc(C(=O)OCC(=O)NC(=O)c2ccccc2)c1O | active: 79.4 µM
COc1ccc(C(=O)CSc2nnc(Cn3nnc4ccccc43)n2C)cc1 | inactive
O=C(CSc1ncc(CO)n1Cc1ccc(Cl)cc1)NCc1ccc(F)cc1 | inconclusive: 79.4 µM [inhibitor, single point]
CCN1CCN(c2cc(C)c3cc(NC(=S)N4CCN(c5ccccc5F)CC4)ccc3n2)CC1 | inconclusive: 28.2 µM [inhibitor, partial curve]
Cc1cc(C(=O)N/N=C/c2cc([N+](=O)[O-])ccc2O)c2ccccc2n1 | active: 17.8 µM
O=C(Nc1ccc(Cc2ccncc2)cc1)c1cccc([N+](=O)[O-])c1 | inconclusive: 89.1 µM [inhibitor, single point]
CC1CCc2c(sc(/N=C/N(C)C)c2C#N)C1 (stereo unspecified) | active: 39.8 µM
CN(C)c1cc2c(c(N(C)C)c1)C(=O)c1ccccc1C2=O | active: 8.91 µM
CCC(C)NC(=O)CSc1nc2ccccc2c(=O)n1-c1c(C)n(C)n(-c2ccccc2)c1=O (stereo unspecified) | inactive
CCc1nc(SCC(=O)NNC(=O)C(C)C)c2ccccc2n1 | inactive
C/C(=N/NC(=O)c1ccccn1)c1c[nH]c2ccccc12 | active: 50.1 µM
Cn1cc(S(=O)(=O)NCc2ccc3c(c2)OCO3)c(C(F)(F)F)n1 | inactive
O=C(O)CSCC(=O)NCc1cccc(C(F)(F)F)c1 | inactive
